The supplement of paper PMC6135742
Values joined by “and” are separate entries in the source; they are usually repeats but may differ in a detail not shown here. Equal entries are not always repeated. Structures can show the parent of a compound that is named as a salt. Over roughly 2,600 compounds, “total cell number (DAPI+ nuclei) relative to DMSO vehicle control” has its median near -1.4; the lowest 2% begin near -23. Some of the results follow.

System: jimpy (Plp1 jimpy) mouse iPSC-derived oligodendrocyte progenitor cells
Experiment: total cell number (DAPI+ nuclei) relative to DMSO vehicle control (SDs above negative control mean); higher = more surviving cells
Conditions: 10 µM; 3 days

| Compound | total cell number |
| --- | --- |
| O=C(O)CCCc1c[nH]c2ccccc12 [3-Indolebutyric acid (IBA)] | -1.42 |
| O=C(c1cc(Cc2n[nH]c(=O)c3ccccc23)ccc1F)N1CCN(C(=O)C2CC2)CC1 | -9.61 |
| CC[C@H]1OC(=O)[C@H](C)[C@@H](O[C@H]2C[C@@](C)(OC)[C@@H](O)[C@H](C)O2)[C@H](C)[C@@H](O[C@@H]2O[C@H](C)C[C@H](N(C)C)[C@H]2O)[C@](C)(O)C[C@@H](C)C(=O)[C@H](C)[C@@H](O)[C@]1(C)O [Erythromycin] | 0.42 |
| CC(C(=O)O)c1ccc(CC2CCCC2=O)cc1 (stereo not given) [loxoprofen] | -0.593 |
| CC1=C(/C=C/C(C)=C/C=C/C(C)=C/C=C/C=C(C)/C=C/C=C(C)/C=C/C2=C(C)CCCC2(C)C)C(C)(C)CCC1 [Beta Carotene] | -2.83 |
| CO[C@H]1/C=C/O[C@@]2(C)Oc3c(C)c(O)c4c(O)c(c(/C=N/N5CCN(C)CC5)c(O)c4c3C2=O)NC(=O)/C(C)=C\C=C\[C@H](C)[C@H](O)[C@@H](C)[C@@H](O)[C@@H](C)[C@H](OC(C)=O)[C@@H]1C [Rifampin] | -2.94 |
| COc1cc(F)c(C(C)C)cc1-c1ccc(C(F)(F)F)cc1CN1C(=O)O[C@H](c2cc(C(F)(F)F)cc(C(F)(F)F)c2)[C@@H]1C [Anacetrapib (MK-0859)] | 0.445 |
| CC(C)NCC(O)c1ccc(O)c(O)c1 (racemic) [Isoprenaline HCl] | -1.1 |
| CC(C)NCC(O)c1ccc(O)c(O)c1 (racemic) [(±)-Isoproterenol hydrochloride] | -1.5 |
| CCCSc1ccc2[nH]c(NC(=O)OC)nc2c1 [Albendazole] | -6.19 |
| Cc1c(Cl)cccc1Nc1ccccc1C(=O)O [Tolfenamic Acid] | -0.866 |
| Cc1ccc(N(CC2=NCCN2)c2cccc(O)c2)cc1 [Phentolamine mesylate] | -0.125 |
| Cc1ccc(N(CC2=NCCN2)c2cccc(O)c2)cc1 [Phentolamine Mesylate] | 0.634 |
| CNC[C@@H](O)c1ccc(O)c(O)c1 [L-Adrenaline] | -0.0165 |
| CC[n+]1c(/C=C/C=C2/N(C)c3ccccc3C2(C)C)sc2ccccc21 | -11 |
| CCc1ccc(CCOc2ccc(CC3SC(=O)NC3=O)cc2)nc1 (stereo not given) [Pioglitazone] | -1.8 |
| CCc1ccc(CCOc2ccc(CC3SC(=O)NC3=O)cc2)nc1 (stereo not given) [Pioglitazone HCl] | -0.831 |
| CC(C)(C)c1ccc(/C=C/C(=O)Nc2ccc3c(c2)OCCO3)cc1 | 0.103 |
| Oc1ccc(C2CNCCc3c2cc(O)c(O)c3Cl)cc1 (stereo not given) [Fenoldopam bromide] | -2.3 |
| CC(C(=O)O)c1cccc(Oc2ccccc2)c1 (stereo not given) [Fenoprofen Calcium] | -0.58 |
| CCCc1ncc(C[n+]2ccccc2C)c(N)n1 [Amprolium HCl] | -0.382 |
| O=C1NC(=O)/C(=C/c2ccc3nccc(-c4ccncc4)c3c2)S1 | -20.2 |
| O=C1NC(=O)C(c2ccccc2[N+](=O)[O-])=C1Nc1ccc(O)c(Cl)c1 | -1.07 and -1.59 |
| OC[C@H]1OC(O)[C@H](O)[C@@H](O)[C@@H]1O (stereo not given in full) [Dextrose] | 2.21 |
| O=C(O)C1CCNCC1 [Isonipecotic acid] | -1.95 |

| Compound | total cell number |
| --- | --- |
| CC1(C)CCC(NC(=O)[C@@H](N)CCC(=O)O)CC1 | -1.77 |
| C=CC(N)CCC(=O)O (racemic) [(±)-gamma-Vinyl GABA] | -0.562 |
| OC[C@@H](O)[C@@H](O)[C@H](O)[C@H](O)CO [D-Mannitol] | 1.04 |
| CC1(C)CCC=[N+]1[O-] [5,5-Dimethyl-1-pyrroline-N-oxide] | 0.081 |
| CCn1cc(C(=O)O)c(=O)c2cc(F)c(N3CCNCC3)nc21 [Enoxacin] | 2.28 |
| CC(=O)OCC(=O)NCCCOc1cccc(CN2CCCCC2)c1 [Roxatidine Acetate HCl] | -1.22 |
| C[C@H](NCc1ccc(OCc2cccc(F)c2)cc1)C(N)=O [Safinamide Mesylate] | -4.82 |
| N[C@@H](CC(=O)O)C(=O)O [L-Aspartic acid] | -2.53 |
| CC(C)OC(=O)C(C(=O)OC(C)C)=C1SC=CS1 [Malotilate] | 7.42 |
| CNc1ncnc2c1ncn2[C@@H]1O[C@H](CO)[C@@H](O)[C@H]1O [N6-methyladenosine (m6A)] | -1.41 |
| CC(C)(C)C(=O)OCOC(=O)[C@@H]1N2C(=O)[C@@H](/N=C/N3CCCCCC3)[C@H]2SC1(C)C [Pivmecillinam] | -2.02 |
| c1ccc2c(c1)CCCC2C1=NCCN1 (stereo not given) [Tetrahydrozoline HCl] | 1.51 |
| c1ccc2c(c1)CCCC2C1=NCCN1 (stereo not given) [Tetrahydrozoline hydrochloride] | -0.562 |
| CN(C)C[C@H](O)Cn1c2ccc(Br)cc2c2cc(Br)ccc21 (racemic) [Wiskostatin] | -4.17 |
| C[C@@H](O)[C@H]1C(=O)N2C(C(=O)O)=C(SCCNC=N)C[C@H]12 [Imipenem monohydrate] | -1.16 |
| CN=c1nc(-c2ccccc2)n(-c2ccccc2)s1 | -0.562 |
| C=C(C)[C@@H]1CC[C@]2(C(=O)O)CC[C@]3(C)[C@H](CC[C@@H]4[C@@]5(C)CC[C@H](O)C(C)(C)[C@@H]5CC[C@]43C)[C@@H]12 [Betulinic acid] | -0.338 |
| CCCCCN(C)CCC(O)(P(=O)(O)O)P(=O)(O)O [Ibandronate sodium] | -0.942 |
| C1N2CN3CN1CN(C2)C3 [Methenamine] | -0.338 |
| O=C(O)C1=C[C@@H](O)[C@@H](O)[C@H](O)C1 [Shikimic Acid] | 0.0421 |
| CC(C)c1nc(N(C)S(C)(=O)=O)nc(-c2ccc(F)cc2)c1/C=C/[C@@H](O)C[C@@H](O)CC(=O)O [Rosuvastatin Calcium] | -1.16 |
| C[N+](C)(C)CCOP(=O)(O)OP(=O)([O-])OC[C@H]1O[C@@H](n2ccc(N)nc2=O)[C@H](O)[C@@H]1O [Cytidine 5'-diphosphocholine sodium salt hydrate] | -1.99 |
| C[C@](N)(Cc1ccc(O)cc1)C(=O)O [L-alpha-Methyl-p-tyrosine] | -0.37 |
| CC(C)NCC(O)COc1cccc2ccccc12 (racemic) [Propranolol HCl] | -2.66 |
| CC(C)NCC(O)COc1cccc2ccccc12 (racemic) [(±)-Propranolol hydrochloride] | -1.57 |
